As a reminder, the AC50 is the concentration giving half of the maximal activity seen.

The structures appear in SMILES notation. For some of these results: What follows is the remainder of the data, with few or none of the hits. Records with an inconclusive call do not appear. The list shows a part of the results, in another mix than the full data. Activity calls are given as the source filed them. The calls were made as follows, unless noted: active = hit-call score of the fitted dose curve at least 0.9, where 1 is the maximum; inactive = score below 0.9.

Drawing on PubChem BioAssay (EPA / NIEHS), this text covers outcome and AC50 for 6 compounds.

The target in experiment [1] is Cellular tumor antigen p53 (Homo sapiens) (UniProt P04637). Nature of the experiment: TOX21_p53_BLA_p5_ratio: Tox21 HCT-116 p53 Agonism Beta-lactamase Assay, Ratio, Phase 5 (AID 2283599; active = hit-call score of the fitted dose curve at least 0.9, where 1 is the maximum). The essentials:
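HCT-116 cells carrying a p53-inducible beta-lactamase reporter were seeded at 4000 cells/well and dosed after 5 h with compound in DMSO (217-fold dilution). After 16 h at 37C, CCF4-AM substrate was added for 2 h, and the 460/530 nm emission ratio was scored as gain-of-signal versus DMSO.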

The nature of experiment [2]: CCTE_Deisenroth_AIME_384WELL_CTox_Inactive: Cytotoxicity Assessment (CTOX) in CCTE's 384-well Estrogen Receptor Transactivation Assay without AIME metabolic competence (metabolism negative), Deisenroth Lab (AID 2284039; active = hit-call score of the fitted dose curve at least 0.9, where 1 is the maximum;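 also: cell viability via live-cell protease substrate cleaved to fluorescent probe; loss of fluorescence signal means loss of viability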). The essentials: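 Fluorescent protease-substrate viability readout after 24 h exposure of VM7Luc4E2 cells to conditioned medium. Chemicals (0.002–200 uM) first sat 2 h over alginate-water beads, no S9. Data fitted bidirectionally, loss of signal meaning viability loss.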

Read-out in experiment [3]: Monokine induced gamma interferon (MIG), CXCL9 (gene 4283)
Nature of the experiment: BSK_BE3C_MIG: BioMAP Diversity Plus: BE3C Assay for Monokine induced gamma interferon (MIG) Biomarker Activity (AID 2283035). To be noted: actives raise or lower the signal; primary human bronchial epithelial cells. The essentials: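 ELISA read-out of MIG in human lung bronchial epithelial primary cultures, 24 h post-dosing. Bidirectional curve fit vs DMSO baseline.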

Read-out in experiment [4]: Urokinase-type plasminogen activator receptor (uPAR), PLAUR (gene 5329)
Nature of the experiment: BSK_BE3C_uPAR: BioMAP Diversity Plus: BE3C Assay for Urokinase-type plasminogen activator receptor (uPAR) Biomarker Activity (AID 2283039).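 As to outcome: uPAR protein level measured by ELISA on the cells; cells exposed to compound for one day before measurement.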 To be noted: actives raise or lower the signal; primary human bronchial epithelial cells. The essentials:
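Primary human bronchial epithelial cells dosed for 24 h; uPAR quantified by ELISA with bidirectional fitting against DMSO. Overt cytotoxicity assessed in parallel cultures by SRB total-protein staining (0.1% SRB, 560 nm).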

Read-out in experiment [5]: Thrombomodulin, THBD (gene 7056)
Nature of the experiment: BSK_3C_Thrombomodulin: BioMAP Diversity Plus: 3C Assay for Thrombomodulin Biomarker Activity (AID 2283029). To be noted: actives raise or lower the signal; primary human endothelial cells (HUVEC). The essentials:
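Human umbilical vein endothelial cells were exposed to chemicals for 24 h; cell-surface thrombomodulin quantified by ELISA, with bidirectional fitting against DMSO baseline.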

Experiment [6] in a line: BSK_BT_Bcell_Proliferation: Viability Assessment in the BioMAP Diversity Plus: BT Assay for B cell Proliferation (AID 2284227). Particulars: primary human B cells with PBMC. The essentials:
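Human B cell/PBMC co-culture; test chemical added; 72 h; TCA fix (10%), 0.1% SRB stain, A560 for total protein as a proliferation read-out; positive-direction fit vs DMSO baseline.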

Experiment [7] has as its target Estrogen receptor (Homo sapiens) (UniProt P03372). Description: CCTE_Deisenroth_AIME_96WELL_LUC_Inactive: CCTE's 96-well Estrogen Receptor Transactivation Assay without AIME metabolic competence (ERTA luciferase; metabolism negative), Deisenroth Lab (AID 2284025; active = hit-call score of the fitted dose curve at least 0.9, where 1 is the maximum). The essentials:
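VM7Luc4E2 breast cells, luciferase read 24 h after dosing with medium pre-incubated 2 h on alginate-water lids (metabolism negative). 10-point series 0.002–200 uM, single technical replicate, n≥4; fit relative to 17beta-estradiol.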

Read-out in experiment [8]: Vascular cell adhesion molecule 1 (VCAM1), VCAM1 (gene 7412)
Description: BSK_4H_VCAM1: BioMAP Diversity Plus: 4H Assay for Vascular cell adhesion molecule 1 (VCAM1) Biomarker Activity (AID 2283033). Particulars: actives raise or lower the signal; primary human endothelial cells (HUVEC). The essentials: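 Primary human umbilical vein endothelial cells, 4H stimulation system, treated for 24 h; cell-surface VCAM-1 quantified by ELISA. Bidirectional fitting against DMSO; cytotoxicity tracked by SRB total-protein staining in parallel cultures.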

Read-out in experiment [9]: Vascular cell adhesion molecule 1 (VCAM1), VCAM1 (gene 7412)
Description: BSK_hDFCGF_VCAM1: BioMAP Diversity Plus: hDFCGF Assay for Vascular cell adhesion molecule 1 (VCAM1) Biomarker Activity (AID 2283065). Particulars: actives raise or lower the signal; primary human foreskin fibroblasts. The essentials:
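Human foreskin fibroblast primary cells dosed with chemical, VCAM-1 measured by ELISA at 24 h. Bidirectional curve fitting relative to DMSO as negative control/baseline.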

Experiment [10] deals with human Matrix Metalloproteinase-3 (MMP3), MMP3 (gene 4314) (UniProt P08254). Description: NVS_ENZ_hMMP3: NovaScreen (NVS) Enzymatic Assay for human Matrix Metalloproteinase-3 (MMP3) (AID 2283185; active = hit-call score of the fitted dose curve at least 0.9, where 1 is the maximum). The protocol:
NVS_ENZ_hMMP3 is a biochemical, single-readout assay that uses extracted gene-proteins in a cell-free assay. Measurements were taken 1 hour after chemical dosing in a 96-well plate.NVS_ENZ_hMMP3 is one of one assay component(s) measured or calculated from the NVS_ENZ_hMMP3 assay. It is designed to make measurements of enzyme activity, a form of enzyme reporter, as detected with fluorescence intensity signals by Fluorescence technology.Data from the assay component NVS_ENZ_hMMP3 was analyzed into 1 assay endpoint. This assay endpoint, NVS_ENZ_hMMP3, was analyzed in the positive analysis fitting direction relative to DMSO as the negative control and baseline of activity. […] Furthermore, this assay endpoint can be referred to as a primary readout, because this assay has produced multiple assay endpoints where this one serves a enzymatic activity function. […]
Binding assays used specific radioligands (tritiated, iodinated) with non-radioactive competitive displacement ligands in agonist or antagonist protocols (as indicated) and various reference compounds and inhibitors to titrate specific binding to receptors and transporters. Most enzyme assays (CYPs, kinases, phosphatases, proteases, HDACs) used recombinant protein and specific substrates (fluorescence mostly, some colorimetric and radioactive) and inhibitors, followed by a biochemical separation of substrate and product. […]

Read-out in experiment [11]: Heat shock 70 kDa protein 1 (HSPA1A), gene 3303
Description: LTEA_HepaRG_HSPA1A: Life Technologies and Expression Analysis (LTEA) Assay for Heat shock 70 kDa protein 1 (HSPA1A) using HepaRG (AID 2283502). To be noted: actives raise or lower the signal; mRNA level, 48 h. The essentials: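 Human HepaRG cells in serum-free induction medium were exposed in duplicate for 48 h to 8 half-log concentrations, highest 100 uM, in 0.5% DMSO. HSPA1A mRNA read by TaqMan qRT-PCR, normalized to ACTB, GAPDH, POLR2A, fitted bidirectionally against DMSO.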

Read-out in experiment [12]: solute carrier (SLC22A1), SLC22A1 (gene 6580)
Nature of the experiment: LTEA_HepaRG_SLC22A1: Life Technologies and Expression Analysis (LTEA) Assay for solute carrier (SLC22A1) using HepaRG (AID 2283524).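 Also: differentiated human HepaRG liver cells in serum-free induction medium.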 To be noted: actives raise or lower the signal; mRNA level, 48 h. The essentials:
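Human HepaRG cells were plated 48 h, switched to serum-free induction medium, then exposed in duplicate for 48 h to 8-point half-log series from 100 uM in 0.5% DMSO. SLC22A1 mRNA measured by qRT-PCR, normalized to ACTB/GAPDH/POLR2A, fitted bidirectionally versus DMSO.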

UniProt P04637, sequence (P04637 whole entry, looked up): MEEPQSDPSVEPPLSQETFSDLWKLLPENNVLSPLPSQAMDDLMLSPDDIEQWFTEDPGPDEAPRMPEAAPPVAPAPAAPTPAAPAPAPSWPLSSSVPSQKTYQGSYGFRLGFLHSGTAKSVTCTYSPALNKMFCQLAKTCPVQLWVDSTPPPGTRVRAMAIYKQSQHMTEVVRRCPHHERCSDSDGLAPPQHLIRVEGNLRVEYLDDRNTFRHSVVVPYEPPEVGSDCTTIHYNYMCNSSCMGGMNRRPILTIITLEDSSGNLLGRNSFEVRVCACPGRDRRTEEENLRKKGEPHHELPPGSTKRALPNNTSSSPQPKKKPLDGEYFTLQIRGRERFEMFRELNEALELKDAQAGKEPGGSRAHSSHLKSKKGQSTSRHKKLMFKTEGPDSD
UniProt P03372, sequence (P03372 whole entry, looked up): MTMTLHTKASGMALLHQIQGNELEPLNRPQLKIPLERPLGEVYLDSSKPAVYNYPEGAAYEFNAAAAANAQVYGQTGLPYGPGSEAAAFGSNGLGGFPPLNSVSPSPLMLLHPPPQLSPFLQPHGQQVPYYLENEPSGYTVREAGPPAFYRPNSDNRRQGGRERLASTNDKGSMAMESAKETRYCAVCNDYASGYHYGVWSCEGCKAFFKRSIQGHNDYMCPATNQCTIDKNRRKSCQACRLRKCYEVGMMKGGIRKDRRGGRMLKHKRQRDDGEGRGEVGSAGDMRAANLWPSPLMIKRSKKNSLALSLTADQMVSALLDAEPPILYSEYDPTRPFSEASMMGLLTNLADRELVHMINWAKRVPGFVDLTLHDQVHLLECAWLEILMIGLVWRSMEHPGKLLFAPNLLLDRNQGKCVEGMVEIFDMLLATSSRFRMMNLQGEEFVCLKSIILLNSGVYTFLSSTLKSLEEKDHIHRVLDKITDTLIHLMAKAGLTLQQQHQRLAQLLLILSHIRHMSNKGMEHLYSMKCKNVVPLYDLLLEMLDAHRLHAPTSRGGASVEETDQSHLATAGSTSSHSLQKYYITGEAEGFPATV
UniProt P08254, sequence (P08254 whole entry, looked up): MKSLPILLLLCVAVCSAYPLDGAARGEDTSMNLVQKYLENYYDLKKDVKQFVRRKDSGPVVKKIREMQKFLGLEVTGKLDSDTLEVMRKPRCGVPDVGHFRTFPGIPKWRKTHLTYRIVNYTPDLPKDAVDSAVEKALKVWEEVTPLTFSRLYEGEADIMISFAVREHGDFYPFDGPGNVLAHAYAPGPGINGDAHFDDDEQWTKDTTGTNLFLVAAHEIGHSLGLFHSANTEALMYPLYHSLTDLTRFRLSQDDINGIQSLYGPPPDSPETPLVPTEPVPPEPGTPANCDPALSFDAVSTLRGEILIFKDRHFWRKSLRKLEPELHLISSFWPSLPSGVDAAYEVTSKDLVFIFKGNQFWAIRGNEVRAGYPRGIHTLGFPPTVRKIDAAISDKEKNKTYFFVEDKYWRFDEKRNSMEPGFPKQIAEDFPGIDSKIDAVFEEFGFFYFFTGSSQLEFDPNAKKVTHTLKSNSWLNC

As for `CCCCCC/C=C/CCCCCCCC(=O)O`, the result in experiment [1] was inactive.

Consider `NCCNCCN`, for which the compound was classed as inactive in experiment [2].

`CN1CCN(c2ccccc2/C=C2\SCCN(c3ccc(Cl)c(Cl)c3)C2=O)CC1`: the results for the concentration at half-maximal activity (AC50) in experiment [3] and in experiment [4] were active: 37.6 µM and active: 30.6 µM, respectively.

In the case of `c1ccc2sc(SSN3CCOCC3)nc2c1`, in experiment [5], the outcome was inactive. The AC50 in experiment [6] is active: 13.4 µM.

For the compound `c1ccc2c(c1)Cc1ccccc1-2`, the outcome in experiment [4] and in experiment [7] was inactive.

On to `Nc1nc(=S)c2[nH]cnc2[nH]1`, for which the outcome in experiment [8] and in [9] was inactive. Further, the AC50 in experiment [10] is active: 19.9 µM; in [11] it was active: 2.93 µM; in [12], active: 10.9 µM.
